The record followed here is article PMC9911399, “Two distinct binding modes provide the RNA-binding protein RbFox with extraordinary sequence specificity”.

Where a chain is given by its changes, count along the chain named. The list shows a part of the results.

Sequences and labels used below:
T1: RBFOX1 RRM (Homo sapiens, UniProt Q9NWB1 109-208)
T1 sequence: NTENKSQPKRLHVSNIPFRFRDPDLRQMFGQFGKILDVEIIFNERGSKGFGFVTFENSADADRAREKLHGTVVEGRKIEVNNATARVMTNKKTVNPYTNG

B1: UCUCGGG (DNA:RNA)
RNA: GGGAGACCGGAAUUCAGAUUGUCCUCUCGGGUUAAAUCCCGUCGUAGCCACCA
DNA 1: CAATCTGAATTCCGGTCTCCC
DNA 2: TGGTGGCTACGACGGGATT
B2: CCUGUAG (DNA:RNA)
RNA: B1 RNA with U25C, C28G, G29U, G30A
DNA 1: CAATCTGAATTCCGGTCTCCC
DNA 2: TGGTGGCTACGACGGGATT
B3: UUGGUCU (DNA:RNA)
RNA: B1 RNA with C26U, U27G, C28G, G29U, G30C, G31U
DNA 1: CAATCTGAATTCCGGTCTCCC
DNA 2: TGGTGGCTACGACGGGATT
B4: GUACGUA (DNA:RNA)
RNA: B1 RNA with U25G, C26U, U27A, G30U, G31A
DNA 1: CAATCTGAATTCCGGTCTCCC
DNA 2: TGGTGGCTACGACGGGATT
B5: AAUGUUG (DNA:RNA)
RNA: B1 RNA with U25A, C26A, C28G, G29U, G30U
DNA 1: CAATCTGAATTCCGGTCTCCC
DNA 2: TGGTGGCTACGACGGGATT
B6: GAGUUGU (DNA:RNA)
RNA: B1 RNA with U25G, C26A, U27G, C28U, G29U, G31U
DNA 1: CAATCTGAATTCCGGTCTCCC
DNA 2: TGGTGGCTACGACGGGATT
B7: UAAAGGC (DNA:RNA)
RNA: B1 RNA with C26A, U27A, C28A, G31C
DNA 1: CAATCTGAATTCCGGTCTCCC
DNA 2: TGGTGGCTACGACGGGATT
B8: GACAGGC (DNA:RNA)
RNA: B1 RNA with U25G, C26A, U27C, C28A, G31C
DNA 1: CAATCTGAATTCCGGTCTCCC
DNA 2: TGGTGGCTACGACGGGATT
B9: AAGAGUC (DNA:RNA)
RNA: B1 RNA with U25A, C26A, U27G, C28A, G30U, G31C
DNA 1: CAATCTGAATTCCGGTCTCCC
DNA 2: TGGTGGCTACGACGGGATT
B10: AGCAGCG (DNA:RNA)
RNA: B1 RNA with U25A, C26G, U27C, C28A, G30C
DNA 1: CAATCTGAATTCCGGTCTCCC
DNA 2: TGGTGGCTACGACGGGATT
B11: UCACACA (DNA:RNA)
RNA: B1 RNA with U27A, G29A, G30C, G31A
DNA 1: CAATCTGAATTCCGGTCTCCC
DNA 2: TGGTGGCTACGACGGGATT
B12: GAAUGGU (DNA:RNA)
RNA: B1 RNA with U25G, C26A, U27A, C28U, G31U
DNA 1: CAATCTGAATTCCGGTCTCCC
DNA 2: TGGTGGCTACGACGGGATT
B13: UCAGAGC (DNA:RNA)
RNA: B1 RNA with U27A, C28G, G29A, G31C
DNA 1: CAATCTGAATTCCGGTCTCCC
DNA 2: TGGTGGCTACGACGGGATT
B14: UUCACGG (DNA:RNA)
RNA: B1 RNA with C26U, U27C, C28A, G29C
DNA 1: CAATCTGAATTCCGGTCTCCC
DNA 2: TGGTGGCTACGACGGGATT
B15: AAGCGGA (DNA:RNA)
RNA: B1 RNA with U25A, C26A, U27G, G31A
DNA 1: CAATCTGAATTCCGGTCTCCC
DNA 2: TGGTGGCTACGACGGGATT
B16: CAUGACA (DNA:RNA)
RNA: B1 RNA with U25C, C26A, C28G, G29A, G30C, G31A
DNA 1: CAATCTGAATTCCGGTCTCCC
DNA 2: TGGTGGCTACGACGGGATT
B17: AGUCCAU (DNA:RNA)
RNA: B1 RNA with U25A, C26G, G29C, G30A, G31U
DNA 1: CAATCTGAATTCCGGTCTCCC
DNA 2: TGGTGGCTACGACGGGATT
B18: UUUCUAG (DNA:RNA)
RNA: B1 RNA with C26U, G29U, G30A
DNA 1: CAATCTGAATTCCGGTCTCCC
DNA 2: TGGTGGCTACGACGGGATT
B19: UUAGUAG (DNA:RNA)
RNA: B1 RNA with C26U, U27A, C28G, G29U, G30A
DNA 1: CAATCTGAATTCCGGTCTCCC
DNA 2: TGGTGGCTACGACGGGATT
B20: UUGAUAA (DNA:RNA)
RNA: B1 RNA with C26U, U27G, C28A, G29U, G30A, G31A
DNA 1: CAATCTGAATTCCGGTCTCCC
DNA 2: TGGTGGCTACGACGGGATT
B21: GAGAGUU (DNA:RNA)
RNA: B1 RNA with U25G, C26A, U27G, C28A, G30U, G31U
DNA 1: CAATCTGAATTCCGGTCTCCC
DNA 2: TGGTGGCTACGACGGGATT
B22: AAUAGCU (DNA:RNA)
RNA: B1 RNA with U25A, C26A, C28A, G30C, G31U
DNA 1: CAATCTGAATTCCGGTCTCCC
DNA 2: TGGTGGCTACGACGGGATT
B23: AUCAGAA (DNA:RNA)
RNA: B1 RNA with U25A, C26U, U27C, C28A, G30A, G31A
DNA 1: CAATCTGAATTCCGGTCTCCC
DNA 2: TGGTGGCTACGACGGGATT
B24: GGCUUGA (DNA:RNA)
RNA: B1 RNA with U25G, C26G, U27C, C28U, G29U, G31A
DNA 1: CAATCTGAATTCCGGTCTCCC
DNA 2: TGGTGGCTACGACGGGATT
B25: CGGGCCC (DNA:RNA)
RNA: GGGAGACCGGAAUUCAGAUUGUCCCGGGCCCUUAAAUCCCGUCGUAGCCACCA
DNA 1: CAATCTGAATTCCGGTCTCCC
DNA 2: TGGTGGCTACGACGGGATT
B26: UACGGUU (DNA:RNA)
RNA: B1 RNA with C26A, U27C, C28G, G30U, G31U
DNA 1: CAATCTGAATTCCGGTCTCCC
DNA 2: TGGTGGCTACGACGGGATT
B27: GUAGGUU (DNA:RNA)
RNA: B25 RNA with C25G, G26U, G27A, C29G, C30U, C31U
DNA 1: CAATCTGAATTCCGGTCTCCC
DNA 2: TGGTGGCTACGACGGGATT
B28: CUGCCAC (DNA:RNA)
RNA: B25 RNA with G26U, G28C, C30A
DNA 1: CAATCTGAATTCCGGTCTCCC
DNA 2: TGGTGGCTACGACGGGATT
B29: UCUCAAG (DNA:RNA)
RNA: B1 RNA with G29A, G30A
DNA 1: CAATCTGAATTCCGGTCTCCC
DNA 2: TGGTGGCTACGACGGGATT
B30: UCGAGGU (DNA:RNA)
RNA: B1 RNA with U27G, C28A, G31U
DNA 1: CAATCTGAATTCCGGTCTCCC
DNA 2: TGGTGGCTACGACGGGATT
B31: GCAAACA (DNA:RNA)
RNA: B25 RNA with C25G, G26C, G27A, G28A, C29A, C31A
DNA 1: CAATCTGAATTCCGGTCTCCC
DNA 2: TGGTGGCTACGACGGGATT

The experiment has as its target T1, RBFOX1 RRM. In words: EMSA; HiTS-Eq, 1 nM pool, 10 min; buffer printed only for the single-RNA assays: 10 mM Tris pH 7.5, 150 mM NaCl, 3.4 mM EDTA, 0.001% NP-40, 30 C. The conditions noted are these: tags: His6 N-terminal (pET28a); label: 5' 32P. The method, boiled down:
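Relative association constants, normalised to the cognate motif, were derived by comparing read counts of each RNA species with those of the control reaction. The RNA sequenced was the free fraction, separated by 8% native PAGE after a 10 min equilibration in 50 µL of 1 nM 5′-radiolabelled RNA (7 randomized nucleotides) with increasing concentrations of purified wild-type or mutant RbFox RRM.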
(In general: Mobility shift assays separate free from complexed probe on a gel.)
As for B1, the binding signal is 0.0108 KA relative to UGCAUGU.

Turning to B2, the binding signal is 0.00969 KA relative to UGCAUGU.

For B3, the binding signal was 0.0285 KA relative to UGCAUGU.

B4: the binding signal was 0.0085 KA relative to UGCAUGU.

Take B5: the binding signal was 0.0211 KA relative to UGCAUGU.

B6: the binding signal is 0.0179 KA relative to UGCAUGU.

For the molecule B7, the binding signal is 0.00813 KA relative to UGCAUGU.

For the molecule B8, the binding signal is 0.00819 KA relative to UGCAUGU.

Consider B9, for which the binding signal was 0.00555 KA relative to UGCAUGU.

As to B10, the binding signal was 0.0104 KA relative to UGCAUGU.

With B11, the binding signal is 0.000703 KA relative to UGCAUGU.

For the molecule B12, the binding signal was 0.0193 KA relative to UGCAUGU.

As for B13, the binding signal is 0.0101 KA relative to UGCAUGU.

As for B14, the binding signal is 0.00575 KA relative to UGCAUGU.

Regarding B15, the binding signal is 0.00381 KA relative to UGCAUGU.

Turning to B16, the binding signal is 0.00432 KA relative to UGCAUGU.

As to B17, the binding signal was 0.00403 KA relative to UGCAUGU.

On to B18, for which the binding signal was 0.0155 KA relative to UGCAUGU.

Regarding B19, the binding signal is 0.0154 KA relative to UGCAUGU.

Take B20: the binding signal is 0.00707 KA relative to UGCAUGU.

On to B21, for which the binding signal was 0.0155 KA relative to UGCAUGU.

Take B22: the binding signal is 0.00475 KA relative to UGCAUGU.

B23: the binding signal was 0.00549 KA relative to UGCAUGU.

With B24, the binding signal is 0.0309 KA relative to UGCAUGU.

Regarding B25, the binding signal is 0.0176 KA relative to UGCAUGU.

For the molecule B26, the binding signal was 0.0111 KA relative to UGCAUGU.

For the molecule B27, the binding signal was 0.0129 KA relative to UGCAUGU.

B28: the binding signal is 0.0115 KA relative to UGCAUGU.

In the case of B29, the binding signal was 0.00583 KA relative to UGCAUGU.

Regarding B30, the binding signal was 0.0144 KA relative to UGCAUGU.

In the case of B31, the binding signal is 0.00106 KA relative to UGCAUGU.
